Experimental data from the supplement of paper PMC9446081.
Screen size: about 39,000 compounds; about 220 (0.56%) showed activity. Some of the results follow.

Each molecule was assayed on Escherichia coli K-12 BW25113 (assay: relative growth (OD600 normalised to plate interquartile mean) (fraction); higher = less growth inhibition, active = 0.2 or less). Settings: 50 µM; LB; incubation time: overnight (16-24 h).
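Further: static incubation at 37 °C against the wild-type strain, values averaged over two biological replicates.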

SMILES | relative growth
C[C@@H]1CN([C@H](C)CO)C(=O)c2cccc(NC(=O)CCCCCC(=O)Nc3ccccc3N)c2O[C@H]1CN(C)Cc1ccc(-c2ccccc2)cc1 | inactive: 1
COCCNC(=O)C[C@H]1C[C@H]2c3cc(NS(C)(=O)=O)ccc3O[C@H]2[C@@H](CO)O1 | inactive: 1.03
Cc1noc(C)c1NC(=O)Nc1ccc2c(c1)C(=O)N([C@H](C)CO)C[C@H](C)[C@@H](CN(C)C(=O)c1ccccc1)OCCCC[C@@H](C)O2 | inactive: 0.996
C[C@@H]1CN([C@@H](C)CO)C(=O)c2cc(NC(=O)Cn3cnnn3)ccc2O[C@H]1CN(C)S(=O)(=O)c1cn(C)cn1 | inactive: 1.01
C[C@H]1CN([C@@H](C)CO)C(=O)Cc2cc(NS(=O)(=O)c3ccc(F)cc3)ccc2O[C@@H]1CN(C)Cc1ccc(Cl)c(Cl)c1 | inactive: 0.978
C[C@H]1CN([C@@H](C)CO)C(=O)c2cccc(NC(=O)c3ccncc3)c2O[C@H]1CN(C)Cc1ccncc1 | inactive: 0.988
NCCNC(=O)c1ccc(Cl)cn1 | inactive: 0.995
C[C@@H]1CCCCO[C@H](CN(C)Cc2ccncc2)[C@H](C)CN([C@H](C)CO)C(=O)c2cc(NS(=O)(=O)c3ccc(Cl)cc3)ccc2O1 | inactive: 0.992
C[C@H]1CN([C@@H](C)CO)C(=O)Cc2cc(NS(C)(=O)=O)ccc2O[C@H]1CN(C)C(=O)Nc1ccc2c(c1)OCO2 | inactive: 0.986
COc1ccccc1C(=O)Nc1ccc2c(c1)C(=O)N(C)[C@@H]1CC[C@@H](CC(=O)NCCc3ccncc3)O[C@@H]1CO2 | inactive: 0.997
CN(C)CC(=O)N[C@H]1C=C[C@H](CC(=O)NCCN2CCCCC2)O[C@@H]1CO | inactive: 0.974
C[C@H]1CN([C@@H](C)CO)C(=O)c2cc(NC(=O)C3CC3)ccc2O[C@H]1CN(C)C(=O)Nc1ccc2c(c1)OCO2 | inactive: 1
Cc1ccc(S(=O)(=O)Nc2ccc3c(c2)C(=O)N([C@@H](C)CO)C[C@H](C)[C@H](CN(C)C(=O)Nc2ccccc2)OCCCC[C@@H](C)O3)cc1 | inactive: 0.984
C[C@@H]1CN([C@H](C)CO)C(=O)c2cc(-c3ccc(C(=O)N(C)C)cc3)cnc2O[C@H]1CN(C)C(=O)CN(C)C | inactive: 1
COc1ccc(S(=O)(=O)N2C[C@@H](O)COC[C@@H]3O[C@H](CC(=O)NCCCN(C)C)CC[C@H]32)cc1 | inactive: 0.929
CC(C)NC(=O)N1CC[C@@H]2N(S(C)(=O)=O)CC[C@@]2(C(=O)N2CCOCC2)CC1 | inactive: 0.993
Cc1noc(C)c1NC(=O)N(C)C[C@H]1OCCCC[C@H](C)Oc2ccc(NS(=O)(=O)c3ccc(F)cc3)cc2C(=O)N([C@@H](C)CO)C[C@H]1C | inactive: 1
O=C(C[C@H]1CC[C@H]2[C@@H](COC[C@@H](O)CN2C(=O)c2cnccn2)O1)N1CCN(c2ccccc2)CC1 | inactive: 1.03
C[C@H]1CN([C@@H](C)CO)C(=O)c2cccc(NS(=O)(=O)c3cccs3)c2O[C@@H]1CN(C)C(=O)Nc1cccc2ccccc12 | inactive: 0.984
COc1ccc(NC(=O)Nc2ccc3c(c2)C(=O)N([C@@H](C)CO)C[C@H](C)[C@@H](CN(C)S(=O)(=O)c2c(C)noc2C)OCCCC[C@H](C)O3)cc1 | inactive: 1.02
COc1ccc(S(=O)(=O)Nc2cccc3c2O[C@@H](CN(C)Cc2ccc(Oc4ccccc4)cc2)[C@@H](C)CN([C@H](C)CO)C3=O)cc1 | inactive: 0.981

SMILES | relative growth
Cc1cc(C2(c3cc(C)c(N)c(C)c3)CCCCC2)cc(C)c1N | inactive: 1.03
C[C@H](CO)N1C[C@H](C)[C@@H](CN(C)Cc2ccncc2)OCCCC[C@H](C)Oc2ccc(NC(=O)c3ccccc3)cc2C1=O | inactive: 1
Cc1noc(C)c1S(=O)(=O)N(C)C[C@@H]1Oc2ccc(NC(=O)Cc3cn(C)c4ccccc34)cc2CC(=O)N([C@@H](C)CO)C[C@H]1C | inactive: 0.986
Cc1nc(-c2ccc(Cl)cc2)c(-c2ccccc2)s1 | inactive: 0.946
C[C@@H]1CN([C@H](C)CO)C(=O)c2cc(NC(=O)C3CCCCC3)ccc2O[C@@H](C)CCCCO[C@@H]1CN(C)C(=O)c1ccncc1 | inactive: 0.984
S=C(NCCCc1cnc[nH]1)NCCCN(Cc1ccc(Cl)c(Cl)c1)c1ccc(Br)cn1 | inactive: 0.823
CC(C)C[C@H](NC(=O)CNC(=O)c1cc(Cl)ccc1Cl)B1OC(=O)C[C@](CC(=O)O)(C(=O)O)O1 | inactive: 0.879
C[C@@H]1CCCCO[C@H](CN(C)C(=O)Nc2ccc(C(F)(F)F)cc2)[C@@H](C)CN([C@H](C)CO)C(=O)c2cc(NC(=O)c3ccccc3)ccc2O1 | inactive: 1.02
COc1ccc2c3c(n(c2c1)C)[C@@H](CO)N(C[C@]13CCN(CC1)CC1CCOCC1)C(=O)Cc1ccccn1 | inactive: 1.01
CC(C)NC(=O)N(C)C[C@H]1Oc2ccc(NC(=O)Nc3ccc4c(c3)OCO4)cc2C(=O)N([C@H](C)CO)C[C@@H]1C | inactive: 0.981
O=C(NCc1ccccc1)[C@@H](c1ccco1)N(Cc1ccc(Br)cc1)C(=O)Cc1ccccc1 | inactive: 0.977
C[C@H](CO)N1C[C@H](C)[C@H](CN(C)Cc2ccc(C(=O)Nc3ccccc3N)cc2)Oc2c(NC(=O)Nc3cccc4ccccc34)cccc2C1=O | inactive: 0.977
CC(C)C#Cc1ccc2c(c1)O[C@H](CN(C)C(=O)c1cnccn1)[C@@H](C)CN([C@H](C)CO)S2(=O)=O | inactive: 0.979
CCS(=O)(=O)Nc1ccc2c(c1)C(=O)N(C)[C@@H]1CC[C@H](CC(=O)NCc3ccccc3F)O[C@@H]1CO2 | inactive: 1
CC(C)(C)NC[C@@H](O)c1ccc(O)c(CO)c1.CC(C)(C)NC[C@@H](O)c1ccc(O)c(CO)c1.O=S(=O)(O)O | inactive: 1.03
CC(C)NC(=O)Nc1ccc2c(c1)C(=O)N([C@H](C)CO)C[C@H](C)[C@@H](CN(C)C(=O)Nc1ccccc1)OCCCC[C@@H](C)O2 | inactive: 0.995
C=CC[C@@H](CC(=O)N(CCO)Cc1ccccc1)C(=O)N[C@H](COC(=O)[C@@H](CC=C)Cc1ccc(F)cc1)C(C)(C)C | inactive: 1.05
CC(CN(C)C)CN1c2ccccc2CCc2ccccc21.O=C(O)C=CC(=O)O (stereo unspecified) | inactive: 1.01
CC1(O)CCC(C(C)(C)O)CC1.O (stereo unspecified) | inactive: 0.959
COc1cc(C)c(C(=O)Oc2cc(C)c(C(=O)O)c(O)c2)c(O)c1 | inactive: 1.08
C[C@@H]1CN([C@H](C)CO)C(=O)c2cc(C#Cc3ccccc3F)cnc2O[C@H]1CN(C)C(=O)c1ccc2c(c1)OCO2 | inactive: 0.999

SMILES | relative growth
C[C@@H]1CN([C@@H](C)CO)C(=O)c2cc(NC(=O)c3ccncc3)ccc2O[C@H]1CN(C)S(=O)(=O)c1ccccc1 | inactive: 0.995
Cc1noc(C)c1S(=O)(=O)Nc1ccc2c(c1)C(=O)N([C@H](C)CO)C[C@@H](C)[C@@H](CN(C)S(=O)(=O)c1c(C)noc1C)O2 | inactive: 1.02
Cc1noc(C)c1S(=O)(=O)N(C)C[C@@H]1Oc2c(NS(=O)(=O)c3cccs3)cccc2C(=O)N([C@H](C)CO)C[C@@H]1C | inactive: 1.01
O=C(O)c1cc(O)ccc1O | inactive: 0.959
COc1ccc(S(=O)(=O)Nc2ccc3c(c2)C(=O)N([C@@H](C)CO)C[C@@H](C)[C@H](CN(C)C(=O)C2CCCCC2)OCCCC[C@H](C)O3)cc1 | inactive: 1.03
C[C@@H]1CN([C@@H](C)CO)C(=O)Cc2cc(NC(=O)Nc3ccc4c(c3)OCO4)ccc2O[C@@H]1CN(C)Cc1ccc(C(F)(F)F)cc1 | inactive: 1.05
C[C@H](CO)N1C[C@H](C)[C@H](CN(C)S(=O)(=O)c2ccc(Cl)cc2)Oc2ccc(NC(=O)Nc3cccc4ccccc34)cc2CC1=O | inactive: 1.02
C[C@H](CO)N1C[C@H](C)[C@@H](CN(C)S(=O)(=O)c2cccs2)Oc2c(NC(=O)C3CC3)cccc2C1=O | inactive: 1.01
CC(C)NC(=O)N(C)C[C@H]1Oc2ccc(NC(=O)CCC(F)(F)F)cc2CC(=O)N([C@H](C)CO)C[C@H]1C | inactive: 0.998
O=C(N[C@H]1CC[C@H](CCn2cc(C3(O)CCCC3)nn2)O[C@@H]1CO)C1CCOCC1 | inactive: 0.981
COc1cc2c(cc1OC)[C@@]13ON=C(c4ccc(OCCOC(=O)NCCCCCC(=O)NO)cc4)[C@@H]1CCN3CC2 | inactive: 0.962
COc1ccc2c3c([nH]c2c1)[C@H](CO)N(C[C@]13CCN(CC1)Cc1ccccc1)C(=O)CN1CCOCC1 | inactive: 1.02
C[C@H](CO)N1C[C@H](C)[C@H](CN(C)S(=O)(=O)c2ccc(F)cc2)Oc2ncc(C#CCN(C)C)cc2C1=O | inactive: 1.01
C[C@H](CO)N1C[C@H](C)[C@@H](CN(C)S(=O)(=O)c2cccs2)Oc2ccc(NC(=O)CCN3CCOCC3)cc2CC1=O | inactive: 1.01
C[C@]12C[C@@H]3C[C@](C)(C1)C[C@@](N)(C3)C2 | inactive: 1.04
C[C@@H]1CN([C@H](C)CO)C(=O)c2cc(C#CCc3ccccc3)cnc2O[C@H]1CN(C)C(=O)Cc1cccnc1 | inactive: 1.01
C[C@@H]1CCCCO[C@H](CN(C)Cc2ccc3c(c2)OCO3)[C@H](C)CN([C@@H](C)CO)C(=O)c2cc(NC(=O)NC3CCCCC3)ccc2O1 | inactive: 1.01
C[C@@H](N)c1cnn(-c2ccccc2F)c1 | inactive: 0.987
COc1ccc(S(=O)(=O)Nc2ccc3c(c2)CC(=O)N([C@H](C)CO)C[C@H](C)[C@@H](CN(C)S(=O)(=O)c2ccc(C)cc2)O3)cc1 | inactive: 1.02
